From the supplement of paper PMC11369174, “Proteome-scale characterisation of motif-based interactome rewiring by disease mutations” (Molecular Systems Biology, 2024) come the findings set out here.

Some of the results follow. The data scatter; read single values as rough.

Common to all, as to test: mutation enrichment score (mutant vs wild-type peptide binding to bait); baits are purified protein domains named by gene / domain / UniProt id / residues; peptides come from disordered regions of human proteins; higher = mutation enhances binding relative to wild type
One experiment has as its target ABL1_SH3__P00519_60_121. The settings on record: number of wild-type / mutant comparisons summed (bounds the score): 6, wild-type window: ….
Experiment [1] concerns the target Intersectin-1_SH3_2_Q15811_913_971. The settings on record: number of wild-type / mutant comparisons summed (bounds the score): 6; paper call: no_effect; wild-type window: ….
In experiment [2] the target is GABARAPL1_ATG8__Q9H0R8_2_115. The settings on record: number of wild-type / mutant comparisons summed (bounds the score): 12; paper call: no_effect; wild-type window: ….
Experiment [3] has as its target GABARAPL2_ATG8__P60520_2_115. The following applies: paper call: no_effect, wild-type window: ….
In experiment [4] the target is GABARAP_ATG8__O95166_2_115. The settings on record: paper call: no_effect, wild-type window: ….
Chain of GABARAP_ATG8__O95166_2_115 (chain, as listed by the source): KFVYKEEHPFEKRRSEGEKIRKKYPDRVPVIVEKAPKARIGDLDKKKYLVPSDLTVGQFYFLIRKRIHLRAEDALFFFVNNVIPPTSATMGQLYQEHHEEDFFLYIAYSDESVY
Experiment [5] deals with Intersectin-1_SH3_1_Q15811_740_806. The settings on record: number of wild-type / mutant comparisons summed (bounds the score): 6; paper call: diminished; wild-type window: ….
The target of experiment [6] is Intersectin-1_SH3_3_Q15811_1002_1060. The following applies: number of wild-type / mutant comparisons summed (bounds the score): 12; paper call: diminished; wild-type window: ….
Experiment [7] deals with Intersectin-1_SH3_5_Q15811_1155_1214. The following applies: number of wild-type / mutant comparisons summed (bounds the score): 6; paper call: diminished; wild-type window: ….
The next experiment addresses NCK1_SH3_1_P16333_5_60. The following applies: number of wild-type / mutant comparisons summed (bounds the score): 6; paper call: no_effect; wild-type window: ….
The next experiment deals with Src_SH3__P12931_87_144. The settings on record: number of wild-type / mutant comparisons summed (bounds the score): 12; paper call: no_effect; wild-type window: ….
The target in experiment [8] is FKBP1A_full-length__P62942_1_108, P62942. The following applies: number of wild-type / mutant comparisons summed (bounds the score): 6; paper call: no_effect; wild-type window: ….
Chain of FKBP1A_full-length__P62942_1_108, P62942 (P62942 whole entry): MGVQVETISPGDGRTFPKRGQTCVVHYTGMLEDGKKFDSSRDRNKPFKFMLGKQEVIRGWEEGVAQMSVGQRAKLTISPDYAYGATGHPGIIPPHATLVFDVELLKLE
For experiment [9], the target named is MAP1LC3A_ATG8__Q9H492_2_121. The following applies: number of wild-type / mutant comparisons summed (bounds the score): 12; paper call: no_effect; wild-type window: ….
For experiment [10], the target named is MAP1LC3B_ATG8__Q9GZQ8_2_119. The settings on record: number of wild-type / mutant comparisons summed (bounds the score): 12; paper call: no_effect; wild-type window: ….
Setting [11] is: number of wild-type / mutant comparisons summed (bounds the score): 6.
The mark [12] stands for this setting: number of wild-type / mutant comparisons summed (bounds the score): 12.

Chain of ABL1_SH3__P00519_60_121 (chain, as listed by the source): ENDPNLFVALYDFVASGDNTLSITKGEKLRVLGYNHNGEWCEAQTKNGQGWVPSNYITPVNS
Chain of GABARAPL2_ATG8__P60520_2_115 (chain, as listed by the source): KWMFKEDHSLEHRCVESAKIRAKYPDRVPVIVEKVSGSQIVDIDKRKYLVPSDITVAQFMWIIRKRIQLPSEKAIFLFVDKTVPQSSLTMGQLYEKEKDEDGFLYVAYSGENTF

With APLSAPLSAPQAVHCPSIIWKAPKGQPPVPHEIPTSMEFQE [Q588K Q588K], in the experiment with ABL1_SH3__P00519_60_121 (paper call: no_effect), the mutation enrichment score is -0.16.
On to VLLTPPTPLPPPSPPPTASDKGLATPSPSPCPVPRPLAALK [R86K R86K], for which the mutation enrichment score with ABL1_SH3__P00519_60_121 (paper call: no_effect) was -4.
In the case of SLDQKKRGGHKACCLLTPPPQPLFPPPFFRGGRSPLLSPDM [P59Q P59Q], the mutation enrichment score with ABL1_SH3__P00519_60_121 (paper call: no_effect) is -5; in experiment [1], -1.3.
Consider GGPWGGAAYPPPPSMPPIGLGNVATYAGQFNQDYLSGMAAN [D40G D40G], for which the mutation enrichment score in the experiment with ABL1_SH3__P00519_60_121 (paper call: no_effect) worked out at 1.
Regarding GDNAHTIKYCPLSKVPPPPAYPPPRSARDGPPGKKLR [R276Y R276Y], the mutation enrichment score was 6 with ABL1_SH3__P00519_60_121 (paper call: enhanced) and 2 in experiment [1].
In the case of SAVLATAPRIDDEIPPPLPVWTPESFIVVEEAGEFSPNVPK [R620W R620W], the mutation enrichment score is 0.66 in the experiment with ABL1_SH3__P00519_60_121 (paper call: no_effect); 4.9 in experiment [2]; 3 in [3] (setting [11]); 3 in experiment [4] (setting [11]); -6 in experiment [5]; -8 in experiment [6]. In addition, the mutation enrichment score was -6 in experiment [7], 3.4 with NCK1_SH3_1_P16333_5_60 and -4.8 in the experiment with Src_SH3__P12931_87_144.
LPSARPLSLDGADSAPPPPASSAPPPHHSQGFSVDNIMTSL [P297S P297S]: in the experiment with ABL1_SH3__P00519_60_121 (paper call: no_effect), the mutation enrichment score is -3.2.
PGGGPWGGAAYPPPPSMPPIRLDNVATYAGQFNQDYLSGMA [G38R G38R]: the values for the mutation enrichment score (with ABL1_SH3__P00519_60_121 (paper call: no_effect); in experiment [8]) were 5.7 and 2, respectively.
Consider GKGTPLGTPATSPPPAPLCHLDDYVHISLPQATVTPPRKEE [S403L S403L], for which the mutation enrichment score in the experiment with ABL1_SH3__P00519_60_121 (paper call: no_effect) is 4; in experiment [2], -2.8; in experiment [3] (setting [12]), 2.5; in experiment [4] (setting [12]) it was -1.2; in experiment [9], 3.4; in [10], 0.58.
For the molecule PEKPERTPWMQSPRFSPPPASRLSPPACTLRKHKTNRKPRT [R157S R157S], the mutation enrichment score with ABL1_SH3__P00519_60_121 (paper call: enhanced) came to 6.
On to PKPRERPQIGGTIKQPPSNPQPRPPAEARKKPSEEEAAVAA [P156Q P156Q], for which the mutation enrichment score with ABL1_SH3__P00519_60_121 (paper call: no_effect) was -5.
As to MPRGSRSAASRPASRPAAPSCHPPAHPPPSAAAPA [R15C R15C], the mutation enrichment score with ABL1_SH3__P00519_60_121 (paper call: no_effect) is -2.
The same measure, in the same setting: the same measure for MPRGSRSAASRPASRPAAPSLHPPAHPPPSAAAPA [R15L R15L]: -2.
Same read-out and setting: the same measure for MPRGSRSAASRPASRPAAPSGHPPAHPPPSAAAPA [R15G R15G]: -2; for MPRGSRSAASRPASRPAAPSSHPPAHPPPSAAAPA [R15S R15S]: -2; for PSFTMANNLPMQPPVPSQTSAYSCMLPTSPSVNGRSYDTYT [S353A S353A]: -0.71.
On the same count and under the same terms, with RSPPEEPPDFCCPKCQYQAPVMDTLQIHVMECIE [D406V D406V] the figure was 3.5; with DATAPAWPPPGEDPGTTPPGYSVPVPATELGSTELVTTKTA [H159Y H159Y], 5; with AAFKPEAYAGPEAAAPGLPEPRAELGRAPSPAKCASAFPAA [L69P L69P], 3.
Turning to PPHLLSCWLPPFPSGPPIIPLPPPICPDSLDDADALGSMLI [P245L P245L], in the experiment with ABL1_SH3__P00519_60_121 (paper call: diminished), the mutation enrichment score is -6.
